Source: PubChem BioAssay AID904 (National Center for Advancing Translational Sciences (NCATS), 2007)
In all, about 55,000 compounds went through this assay and about 530 (0.96%) were called active. This list was built around the results that the source calls inconclusive (neither active nor inactive); the mix of calls is not that of the screen. Calls follow the shape of the dose curve; as a rule, active = well fitted cell-killing curve with a large enough effect; inconclusive = small, poorly fitted or top-dose-only effect; inactive = no such curve, though single readings can be large or run the other way. Potencies beside an inconclusive call are fits to weak or partial responses and may not hold up.
Potency is read from the fitted curve at half-maximal effect; tags tell the direction and shape of the fitted curve.

Experiment: qHTS Screen for Compounds that Selectively Target Cancer Cells with p53 Mutations: Cytotoxicity of p53 Null Cells at the Nonpermissive Temperature; also: nearly all actives have a fitted effect of over 50% in size;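 as to activity, negative = cell killing: 0% = DMSO only and -100% = full killing by 100 µM tamoxifen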
Settings: H1299 p53-null (neo) cells, 39C, ATPlite viability, 24 h; activity, negative = cell killing: at 46.1 µM (top of the series)
In short: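 Temperature-shift cytotoxicity format: compound titrations on p53-null or A138V-expressing H1299 cells held 24 hr at 39C, cell ATP then measured, AC50 from Hill model.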
With CC1(C)CC(=O)C(C=NCCN2CCN(CCc3ccccc3)CC2)=C(O)C1 the Potency was inconclusive: 0.355 µM [cytotoxic, partial curve].
In the case of CCOC(=O)c1ccccc1NC(=O)C=C(C)C, the activity, negative = cell killing is reported as inactive: 14.8% [at 1.84 µM].
In the case of O=C(Nc1sc2c(c1C(=O)NCC1CCCO1)CCC2)c1cc(=O)c2cc(Cl)ccc2o1 (stereo unspecified), the “activity, negative = cell killing” value is reported as inactive: 0.143%.
With Cc1ccc(CNS(=O)(=O)c2ccc3[nH]c4c(c3c2)CCCCC4)cc1 the Potency was inconclusive: 31.6 µM [cytotoxic, single point].
In the case of COc1ccc(C(=O)NCCc2csc(-c3ccc(Cl)cc3)n2)c(OC)c1, the Potency is reported as inconclusive: 35.5 µM [cytotoxic, single point].
With Oc1ccc(NCc2ccccc2OCc2ccccc2)cc1 the Potency was inconclusive: 15.8 µM [cytotoxic, single point].
With Cc1ccc2[nH]cc(C(c3ccccc3)c3ccc(Cl)s3)c2c1 (stereo unspecified) the Potency was active: 25.1 µM.
For CCOc1ccccc1NC(=O)Cn1c(=O)n(CCCC(=O)NCc2ccc(C)cc2)c(=O)c2ccccc21, the Potency was inconclusive: 0.02 µM [cytotoxic, full curve, poor fit].
In the case of Cc1ccc(C(=O)NCC(c2ccco2)S(=O)(=O)c2ccccc2)cc1C (stereo unspecified), the Potency is reported as inconclusive: 0.0316 µM [cytotoxic, full curve, poor fit].
For CCOc1cc(C(Nc2cc(C)ccn2)c2ccc3cccnc3c2O)ccc1OC (stereo unspecified), the Potency was inconclusive: 2.51 µM [cytotoxic, full curve].
For O=C(CSc1nc2c([nH]c3ccccc32)c(=O)n1-c1ccc(Cl)cc1)NC1CCCCC1, the “activity, negative = cell killing” value was inactive: 22.4%.
With CN(C)c1ccc(CNC(=O)C2CCCN(S(=O)(=O)c3ccc4c(ccn4C)c3)C2)cc1 (stereo unspecified) the Potency was inconclusive: 35.5 µM [cytotoxic, single point].
In the case of Cc1ccc(NC(=O)COc2ccc(-c3nn(C)c(=O)c4ccccc34)cc2)cc1, the “activity, negative = cell killing” value is reported as inactive: -11.6%.
In the case of Cc1ncc(CO)c2c1Oc1nc(-c3ccccc3)nc(SCC(=O)N3CCCCC3)c1C2, the “activity, negative = cell killing” value is reported as inactive: -21.6%.
For O=c1oc2ccccc2n1CCCOc1ccccc1Cl, the Potency was inconclusive: 8.91 µM [cytotoxic, partial curve].
In the case of CCc1ccc(NC(=O)Cn2c(=O)c(CNc3ccccc3)cc3cc(OC)c(OC)cc32)cc1, the “activity, negative = cell killing” value is reported as inactive: 2.34%.
With Cc1c(C(=O)NCc2ccoc2)oc2ccc3c(c12)C(=O)CC(C)(C)O3 the Potency was inconclusive: 11.2 µM [cytotoxic, single point].
In the case of CCc1nn2c(=O)cc(COC(=O)c3ccccc3NC(=O)COc3ccc(F)cc3)nc2s1, the “activity, negative = cell killing” value is reported as inactive: -0.399%.
In the case of Cc1cccn2cc(-c3cccc(NS(=O)(=O)c4ccc(Cl)c(Cl)c4)c3)nc12, the Potency is reported as inconclusive: 25.1 µM [cytotoxic, single point].
In the case of Cc1c2cnn(CC(=O)NCc3ccccc3)c(=O)c2c(C)n1Cc1cccc(Cl)c1, the Potency is reported as inconclusive: 0.0316 µM [cytotoxic, full curve, poor fit].
With CCOc1ccc(C(=O)c2cn(CC(=O)Nc3cc(OC)cc(OC)c3)c3ccc(F)cc3c2=O)cc1 the “activity, negative = cell killing” value was inactive: -7.92%.
In the case of O=C(CCn1c(=O)c2cccn2c2ccc(F)cc21)NCc1ccccc1F, the Potency is reported as inconclusive: 0.0079 µM [cytotoxic, full curve].
In the case of Cc1cc(=O)n2nc(N3CCC(C(=O)Nc4ccc(C(C)C)cc4)CC3)sc2n1, the Potency is reported as inconclusive: 15.8 µM [cytotoxic, single point].
With COc1ccccc1OCCCn1c(C2CC(=O)N(c3ccccc3Cl)C2)nc2ccccc21 (stereo unspecified) the Potency was inconclusive: 0.01 µM [cytotoxic, full curve, poor fit].
For COc1cccc(CNC(=O)CCS(=O)(=O)c2cc3c(cc2C)NC(=O)CO3)c1, the Potency was inconclusive: 5.62 µM [cytotoxic, single point].
With CCOc1ccc(CNC(=O)CCn2nc(C)c3c(C)n(-c4ccccc4)nc3c2=O)cc1 the Potency was inconclusive: 0.282 µM [cytotoxic, partial curve].
With CCCCOc1ccc(C(=O)NCC2(N3CCN(C)CC3)CCCCC2)cc1 the Potency was inconclusive: 22.4 µM [cytotoxic, single point].
For C=CCNc1nc(-c2cc3ccccc3o2)cs1, the Potency was inconclusive: 3.16 µM [cytotoxic, single point].
In the case of CCCCCn1c(NCc2ccccc2OC)nc2ccccc21, the Potency is reported as inconclusive: 22.4 µM [cytotoxic, partial curve].
In the case of CCOc1ccccc1N1CC(c2nc3ccccc3n2CCCCOc2ccccc2)CC1=O (stereo unspecified), the Potency is reported as inconclusive: 35.5 µM [cytotoxic, single point].
For COc1cccc(NS(=O)(=O)c2cc(-c3cnc(C4CC4)o3)ccc2C)c1, the Potency was inconclusive: 12.6 µM [cytotoxic, partial curve].
With O=C(COC(=O)c1cc(-c2cccs2)nc2ccccc12)c1ccc(Cl)cc1 the “activity, negative = cell killing” value was inactive: 1.1%.
In the case of CC1CCN(C(=O)c2ccc(NC(=O)c3nsc4ccccc34)cc2)CC1, the Potency is reported as inconclusive: 10 µM [cytotoxic, partial curve, poor fit].
In the case of COc1ccc(N2C(=O)CCSC23C(=O)N(Cc2ccc(F)cc2)c2ccccc23)cc1Cl (stereo unspecified), the Potency is reported as inconclusive: 10 µM [cytotoxic, single point].
For CCC(C)NC(=O)Cn1cnc2sc(C)c(S(=O)(=O)N3CCN(c4ccccc4OC)CC3)c2c1=O (stereo unspecified), the Potency was inconclusive: 0.0035 µM [cytotoxic, full curve, poor fit].
With CCN1CCN(c2cc(C)c3cc(NC(=O)c4cc(OC)cc(OC)c4)ccc3n2)CC1 the Potency was inconclusive: 12.6 µM [cytotoxic, partial curve].
With Cc1ccc(N2CCN(C(=O)c3nn(C)c4c3CS(=O)(=O)c3ccccc3-4)CC2C)cc1 (stereo unspecified) the Potency was inconclusive: 0.794 µM [cytotoxic, full curve, poor fit].
In the case of COc1cc(OC)cc(-n2c(=O)[nH]c3cc(C(=O)NCCc4ccc(C)cc4)ccc3c2=O)c1, the “activity, negative = cell killing” value is reported as inactive: -5.56%.
For COc1ccc(NC(=O)N2CCc3c(sc4c3CCCC4)C2c2ccc(F)cc2)cc1 (stereo unspecified), the “activity, negative = cell killing” value was inactive: 13.1%.
With CC(C)CN(c1ccccc1)S(=O)(=O)c1nnc(NC(=O)c2ccco2)s1 the Potency was active: 2 µM.
For CC1=C(c2ccc(C)c(C)c2)S(=O)(=O)N=C1N1CCN(c2cccc(C(F)(F)F)c2)CC1, the Potency was inconclusive: 22.4 µM [cytotoxic, single point].
